# ± gives the standard deviation of the averaged measurements. The full ranking holds about 33,000 sequences; the median of “E-score (dimensionless, -0.5 to 0.5)” is about -0.049, and the highest 2% start at about 0.37. This is one part of the list.
# System: T1, PmTbr T-box DNA-binding domain (GST fusion)
# T1 sequence: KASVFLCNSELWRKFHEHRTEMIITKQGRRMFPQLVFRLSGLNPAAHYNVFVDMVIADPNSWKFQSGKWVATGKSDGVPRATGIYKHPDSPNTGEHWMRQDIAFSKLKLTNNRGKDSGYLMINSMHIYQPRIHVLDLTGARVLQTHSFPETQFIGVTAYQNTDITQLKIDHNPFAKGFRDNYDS
# Test: PBM E-score of 8-mer (E-score (dimensionless, -0.5 to 0.5)); Tbr is Tbrain of the sea star Patiria miniata (Pm) or the sea urchin Strongylocentrotus purpuratus (Sp); higher = stronger binding preference; most listed sequences are background and not binding sites
# Conditions: the construct has about 5 more residues each side
# Protocol: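 Universal protein-binding microarray (Agilent AMADID 016060, 60-bp probes with a 35-bp variable region) incubated with 200 nM GST-fused Patiria miniata Tbr T-box DNA-binding domain (residues 272-466) in PBS pH 7.5. Scored for every ungapped 8-mer (given with its reverse complement) by the Universal PBM Analysis Suite as E-score (modified Wilcoxon-Mann-Whitney enrichment, range -0.5 to 0.5; >0.45 counts as bound) and Z-score of median probe intensity. Two replicate arrays (datasets 1 and 2).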
# 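Note: 200 nM protein in PBS on universal arrays averaged over duplicate arrays.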
row,Sequence,PBM E-score of 8-mer
1,TAGACAAA,-0.108 ± 0.12
2,CCAGGCCA,-0.268 ± 0.0065
3,AATGTTCG,-0.0504 ± 0.044
4,CCGTCCCC,-0.219 ± 0.076
5,ATCTCTAG,0.046 ± 0.033
6,ATACTTTA,-0.124 ± 0.062
7,CTGCATAC,-0.134 ± 0.028
8,CCATAAGG,-0.138 ± 0.019
9,TAAGGTCA,-0.195 ± 0.021
10,AATCGGCG,0.028 ± 0.075
11,ACGTCGCT,0.0255 ± 0.013
12,CACTGCAA,0.0729 ± 0.029
13,GGTTCCAC,0.103 ± 0.021
14,CGCCCGGA,-0.127 ± 0.049
15,AGTTTCCG,-0.107 ± 0.02
16,CAGTCTAG,-0.133 ± 0.011
17,ATTGGGCA,-0.311 ± 0.014
18,ACGGCCCA,-0.197 ± 0.036
19,ATCGCTGG,-0.0392 ± 0.02
20,CTAGGTCA,0.00648 ± 0.021
21,ACGTAGAA,-0.223 ± 0.063
22,TGAATCAA,-0.241 ± 0.0044
23,ATCATCTC,-0.104 ± 0.073
24,AAACACCA,0.268 ± 0.0077
25,GTTCAACA,-0.048 ± 0.021

row,Sequence,PBM E-score of 8-mer
1,ATTCCACA,0.11 ± 0.0066
2,AAAGTCTA,-0.194 ± 0.011
3,GAGAACAA,0.0736 ± 0.061
4,ACTGACGC,0.219 ± 0.029
5,CACCTTCC,0.4461 ± 0.0012
6,CCCATCAA,-0.239 ± 0.024
7,TGCTGCCA,0.0599 ± 0.065
8,GTATAGGA,-0.115 ± 0.049
9,AAGTTCCC,-0.242 ± 0.07
10,GCCCCAGC,-0.0938 ± 0.063
11,AGGACTTG,-0.152 ± 0.021
12,GCGAAGGA,0.112 ± 0.0096
13,ACGAGCGT,0.00364 ± 0.009
14,CGTCTGGA,-0.00957 ± 0.025
15,AGCCATGC,-0.221 ± 0.073
16,AACTTAGA,-0.157 ± 0.055
17,AGATGGGG,-0.0747 ± 0.079
18,GGATCCTA,-0.185 ± 0.057
19,AAATAGCA,0.245 ± 0.039
20,GACATTGA,-0.0426 ± 0.12
21,CCATCCAG,-0.00603 ± 0.045
22,CTCGCGGA,0.0973 ± 0.028
23,ATTTCCAA,-0.0463 ± 0.041
24,AGCTTTAT,-0.0227 ± 0.065
25,AGCTCACA,0.243 ± 0.027

row,Sequence,PBM E-score of 8-mer
1,CACTAGAC,0.128 ± 0.05
2,ACTGCTAA,0.253 ± 0.03
3,ATAGTGCA,0.037 ± 0.00069
4,CCAACCGA,0.0297 ± 0.03
5,AGGCCCCA,-0.00282 ± 0.088
6,GATGCAGA,-0.142 ± 0.0028
7,CCTGAACG,-0.00789 ± 0.012
8,CTAACGAG,0.152 ± 0.013
9,ACACACAA,0.0649 ± 0.066
10,CGAGGACC,-0.0961 ± 0.05
11,AGCTGAGG,0.0719 ± 0.034
12,CCGGTTCG,-0.102 ± 0.022
13,CGAGCGCC,-0.04 ± 0.053
14,ACCCCTAA,-0.0107 ± 0.012
15,ACAAACGT,0.00304 ± 0.087
16,ACAAAGGT,0.185 ± 0.029
17,GTTAAAAC,0.242 ± 0.032
18,TTCTAAAA,-0.224 ± 0.06
19,CGCGTTAC,0.182 ± 0.047
20,GACCTAGA,-0.233 ± 0.0031
21,CATAACGG,-0.0545 ± 0.0046
22,CGTCCTAA,-0.161 ± 0.043
23,ATAATGCC,-0.174 ± 0.081
24,TACTCTGA,-0.296 ± 0.047
25,CATTTCCC,-0.12 ± 0.03

row,Sequence,PBM E-score of 8-mer
1,GCGTGCAC,-0.11 ± 0.0083
2,ATGTTGGA,-0.0683 ± 0.0083
3,ATGTCTAC,-0.197 ± 0.004
4,AAAAAACT,-0.0997 ± 0.07
5,GATACATC,0.109 ± 0.043
6,GGTTTTCA,-0.0123 ± 0.066
7,GCTTTCCA,-0.136 ± 0.0065
8,AGGGGAAC,-0.164 ± 0.058
9,ACTTTAGC,0.18 ± 0.053
10,AAGATGCC,-0.11 ± 0.016
11,CTCCAAAG,0.00306 ± 0.0076
12,AGGTATGG,-0.156 ± 0.004
13,CCTACTCG,-0.0832 ± 0.058
14,CATAAACC,-0.0906 ± 0.092
15,AGGCCGAG,0.0138 ± 0.058
16,TGGCTGAA,-0.23 ± 0.083
17,ATGTCGGG,-0.0272 ± 0.082
18,CAGATCGA,-0.0946 ± 0.032
19,AACAACTG,0.236 ± 0.0091
20,GGAAATGA,-0.0842 ± 0.13
21,GATAAGGA,-0.0732 ± 0.091
22,AACACTAA,0.22 ± 0.049
23,CGCTAGCA,0.213 ± 0.054
24,AATCACGT,0.132 ± 0.026
25,GCACGAAC,0.0634 ± 0.087

row,Sequence,PBM E-score of 8-mer
1,AGAGCACG,-0.122 ± 0.054
2,CCATCTAA,-0.101 ± 0.031
3,GGAATCAC,0.0477 ± 0.0062
4,AAATTAAG,-0.352 ± 0.028
5,AGTTATTA,0.21 ± 0.036
6,CTATAACC,0.0577 ± 0.023
7,CCATGCGG,-0.187 ± 0.044
8,CTTCCTGC,-0.137 ± 0.02
9,CAGTGCTA,0.2111 ± 0.00047
10,GTCATGCA,-0.133 ± 0.0069
11,CCCCCACG,-0.094 ± 0.0037
12,ACATCGGA,0.0509 ± 0.11
13,AGCCTGTG,0.00387 ± 0.024
14,CACTGCCG,-0.0289 ± 0.081
15,GACTTTAA,-0.305 ± 0.055
16,ATCTCTAC,-0.199 ± 0.035
17,AGACAGGG,-0.0618 ± 0.038
18,ACAACTTA,0.217 ± 0.074
19,ACCTTGTG,0.221 ± 0.031
20,ATAACAAA,-0.00818 ± 0.13
21,GTCCGTTA,-0.12 ± 0.098
22,CGAATAGC,0.0684 ± 0.011
23,AAAATACA,-0.0985 ± 0.1
24,GAAGGGCA,-0.06 ± 0.0073
25,CAGTCACC,0.1704 ± 0.0011

row,Sequence,PBM E-score of 8-mer
1,ACGGGTCT,0.145 ± 0.0046
2,AGGATTTC,-0.105 ± 0.029
3,AAGTAGCA,0.283 ± 0.015
4,CCTGTCAG,0.224 ± 0.013
5,ACTGCGCC,0.0401 ± 0.084
6,ATGGAACC,-0.241 ± 0.0026
7,GGCGGACA,-0.0729 ± 0.086
8,ACTCCCCG,-0.0322 ± 0.051
9,AATTGCCG,0.131 ± 0.0045
10,GCCAGTTA,0.0465 ± 0.035
11,CGACCCTA,-0.0857 ± 0.014
12,CTTAAATA,-0.12 ± 0.12
13,AGTCGTAT,-0.144 ± 0.032
14,GGTGACCA,0.0575 ± 0.069
15,GGCTTGGA,-0.269 ± 0.017
16,CCGATGCG,-0.137 ± 0.032
17,CGGTACGA,-0.129 ± 0.083
18,ACCCATTA,0.0586 ± 0.03
19,CAAGTGTG,0.433 ± 0.0066
20,AAGGGGCT,-0.298 ± 0.033
21,GTGCTTGA,0.00432 ± 0.026
22,CGAACACG,0.213 ± 0.039
23,CCCACGCG,0.118 ± 0.043
24,GCGTATCC,-0.0938 ± 0.033
25,CGAAGTCG,0.138 ± 0.0022

row,Sequence,PBM E-score of 8-mer
1,ACCATAGG,0.16 ± 0.012
2,AATAAAAA,-0.187 ± 0.012
3,GAGTTAGA,-0.215 ± 0.018
4,GATGGTAA,-0.154 ± 0.025
5,GATTATCA,0.106 ± 0.005
6,AGTTGGCG,0.229 ± 0.039
7,GACAGAGA,-0.0089 ± 0.054
8,CGACGTCG,0.0448 ± 0.045
9,GGTAATAA,-0.204 ± 0.056
10,AGAGTCAA,-0.178 ± 0.012
11,AGCAATAT,0.0515 ± 0.092
12,CTAATTAC,-0.117 ± 0.033
13,CGAAGCCG,0.155 ± 0.06
14,ACATGCTA,0.196 ± 0.0051
15,AGGTAGCA,0.127 ± 0.033
16,CATGGGAA,-0.0941 ± 0.0043
17,ATGTACGG,-0.151 ± 0.073
18,CTTGTGGA,0.139 ± 0.026
19,CGCGTTTA,0.0976 ± 0.027
20,AAGGAGAC,-0.107 ± 0.022
21,ACGGCCGC,0.0697 ± 0.036
22,GGAAGGGA,-0.272 ± 0.032
